Results as given in the supplement of paper PMC4466236.
Over roughly 33,000 sequences, “E-score (dimensionless, -0.5 to 0.5)” has its median near -0.058; the highest 2% begin near 0.35. The list shows a part of the results.

Tested on: MvaT
Test: PBM 8-mer E-score (mean of HK and ME arrays) (E-score (dimensionless, -0.5 to 0.5)); higher = stronger relative binding preference; most listed sequences are background and not binding sites
Outline: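 Full-length P. aeruginosa MvaT, with glutathione S-transferase fused to its N-terminus (cloned into pTH6838 by isothermal assembly), was tested by protein binding microarray using a previously described protocol. Two universal double-stranded 60-mer arrays (ME and HK) were used, each with a constant 25-mer primer region and a variable 35-mer region covering all 8-mers. The rank-based 8-mer E-score (-0.5 to 0.5) is the mean of the two arrays, parsed with a custom Python script.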

Compared with CCAGCCGG, TCAGTGGA is higher in “PBM 8-mer E-score” value: -0.326 for the first, -0.0335 for the second.

Compared with ACAAACGA, ATCTGCAT is lower in “PBM 8-mer E-score” value: 0.0618 for the first, 0.0581 for the second.

Going from ACTGTTAT to AAGTAACT, the “PBM 8-mer E-score” value falls from 0.306 to 0.301.

Compared with CGAAATCA, CGAGAAGA is lower in “PBM 8-mer E-score” value: -0.0764 for the first, -0.142 for the second.

Going from CGAGTTGC to ATCGACCG, the “PBM 8-mer E-score” value falls from 0.0126 to -0.104.

Going from GCCTCACA to ATCGCGAA, the “PBM 8-mer E-score” value rises from -0.142 to 0.045.

Compared with AAGGCGAT, CTGGGCGA is lower in “PBM 8-mer E-score” value: -0.214 for the first, -0.222 for the second.

Going from GATAATCA to ATGTGAAG, the “PBM 8-mer E-score” value falls from 0.176 to 0.122.

First: TGTAGTAA
Second: AATTGAAA
The “PBM 8-mer E-score” value of the first is lower: 0.224 for the first, 0.299 for the second.

Compared with CATCATTC, CCAGAATC is lower in “PBM 8-mer E-score” value: -0.0308 for the first, -0.0382 for the second.

Compared with GCTCTAAC, ATTCTGAC is higher in “PBM 8-mer E-score” value: -0.0464 for the first, -0.00836 for the second.

Going from CACTGAGG to CATGGGGC, the “PBM 8-mer E-score” value falls from -0.187 to -0.232.

Compared with GCAGCCAA, CAGAAGTA is higher in “PBM 8-mer E-score” value: -0.0758 for the first, 0.128 for the second.

First: CTCGGCTC
Second: TCAACCCA
The “PBM 8-mer E-score” value of the first is lower: -0.287 for the first, -0.118 for the second.

First: AGGTAAGC
Second: ATGAGTGA
The “PBM 8-mer E-score” value of the first is lower: -0.135 for the first, 0.00889 for the second.

Compared with CCGGCCAA, GATTTAAC is higher in “PBM 8-mer E-score” value: -0.141 for the first, 0.245 for the second.

First: CTACGGCA
Second: GTCGTTCA
The “PBM 8-mer E-score” value of the first is lower: -0.206 for the first, 0.0471 for the second.

Going from ATTATCCA to GGTTTCTA, the “PBM 8-mer E-score” value falls from 0.246 to -0.099.

First: CTGTGTTA
Second: CACGTTAC
The “PBM 8-mer E-score” value of the first is higher: 0.128 for the first, 0.0428 for the second.

Going from CTTACTTA to GGTGTAAA, the “PBM 8-mer E-score” value falls from 0.316 to 0.132.

First: CTACACTA
Second: ATTAATCG
The “PBM 8-mer E-score” value of the first is lower: 0.0472 for the first, 0.336 for the second.

First: GGCTCTGA
Second: GTGGGGCA
The “PBM 8-mer E-score” value of the first is lower: -0.246 for the first, -0.201 for the second.

First: ATCACTTA
Second: CTGTAGGC
The “PBM 8-mer E-score” value of the first is higher: 0.159 for the first, -0.125 for the second.

Going from TCTCATCA to AATTGTGG, the “PBM 8-mer E-score” value rises from -0.108 to 0.163.

Going from ATAGTTAC to ACAGGTCG, the “PBM 8-mer E-score” value falls from 0.253 to -0.216.

First: AACCAACC
Second: GTAGTAGA
The “PBM 8-mer E-score” value of the first is higher: 0.014 for the first, -0.0406 for the second.

Going from CAACAACA to CGCCAGCA, the “PBM 8-mer E-score” value falls from 0.186 to -0.211.

Going from TATATGCA to AGTACGAA, the “PBM 8-mer E-score” value falls from 0.412 to 0.237.

Going from TAGTCGAA to CAGTGGAC, the “PBM 8-mer E-score” value falls from 0.0969 to 0.0119.

First: CGGAGCAG
Second: ATGCCTCA
The “PBM 8-mer E-score” value of the first is higher: -0.117 for the first, -0.153 for the second.

First: GCTGGCGA
Second: ATTATAGC
The “PBM 8-mer E-score” value of the first is lower: -0.258 for the first, 0.282 for the second.

Going from CGGCGAGA to ATGCCACC, the “PBM 8-mer E-score” value rises from -0.172 to -0.0986.

First: CTACATAC
Second: ATGCGTAG
The “PBM 8-mer E-score” value of the first is higher: 0.0913 for the first, -0.144 for the second.

First: ACGATACT
Second: CCTGCATC
The “PBM 8-mer E-score” value of the first is higher: 0.0587 for the first, -0.106 for the second.

Going from AATGCCAG to CCGCTAGA, the “PBM 8-mer E-score” value rises from -0.0533 to -0.0325.

First: GGGACTGA
Second: CTGGATGA
The “PBM 8-mer E-score” value of the first is lower: -0.207 for the first, -0.128 for the second.

Going from AGAAAGCT to AGTAGGAG, the “PBM 8-mer E-score” value falls from -0.0129 to -0.0489.

Going from GGGGTAAA to AGAAGGTG, the “PBM 8-mer E-score” value falls from -0.0455 to -0.187.

Going from AGGAAGCG to ACGGACCT, the “PBM 8-mer E-score” value falls from -0.269 to -0.277.

Compared with GGCGGGCA, AACAGTCC is higher in “PBM 8-mer E-score” value: -0.183 for the first, -0.0431 for the second.

First: AGATCGCA
Second: TCAGATAA
The “PBM 8-mer E-score” value of the first is lower: -0.217 for the first, 0.129 for the second.

Compared with AGGCATCA, CGAAGAGA is higher in “PBM 8-mer E-score” value: -0.119 for the first, -0.082 for the second.

Compared with ACGCCCAG, CGCCGACC is lower in “PBM 8-mer E-score” value: -0.233 for the first, -0.275 for the second.

First: CCGCACCC
Second: CTATACAG
The “PBM 8-mer E-score” value of the first is lower: -0.362 for the first, 0.00215 for the second.

First: CGCACGAG
Second: AGTTCTTA
The “PBM 8-mer E-score” value of the first is lower: -0.245 for the first, 0.161 for the second.

Compared with AAGACACT, AGGTCTGG is lower in “PBM 8-mer E-score” value: -0.0975 for the first, -0.101 for the second.

Compared with ATATACCC, CGCGAGCG is lower in “PBM 8-mer E-score” value: 0.228 for the first, -0.0493 for the second.

Going from ATGAGAAT to GGTTATAC, the “PBM 8-mer E-score” value rises from 0.00921 to 0.0501.

Compared with CACGTCTA, CGGTGCGC is lower in “PBM 8-mer E-score” value: -0.133 for the first, -0.18 for the second.

Compared with CACTGCTC, GTATGAAC is higher in “PBM 8-mer E-score” value: -0.18 for the first, 0.0873 for the second.

First: AATCACTG
Second: GCACCCTA
The “PBM 8-mer E-score” value of the first is higher: 0.0985 for the first, -0.0451 for the second.

Going from AATCCGTA to AATCTTTC, the “PBM 8-mer E-score” value rises from 0.0525 to 0.158.

Going from GACATACC to ACACTCGG, the “PBM 8-mer E-score” value rises from -0.0731 to -0.0519.

First: GCTGGGAC
Second: ATACACTG
The “PBM 8-mer E-score” value of the first is lower: -0.205 for the first, 0.0549 for the second.

Going from CGATCGTC to CCACAGTC, the “PBM 8-mer E-score” value rises from -0.246 to -0.186.

First: CAGCGTAA
Second: AAACATAT
The “PBM 8-mer E-score” value of the first is lower: -0.0641 for the first, 0.361 for the second.

Compared with AAACTGGA, CATTACAA is higher in “PBM 8-mer E-score” value: 0.0758 for the first, 0.166 for the second.

Compared with TCAACCGA, CAGTATGG is lower in “PBM 8-mer E-score” value: -0.0506 for the first, -0.093 for the second.

First: GTTGTGGA
Second: CGAAAAAC
The “PBM 8-mer E-score” value of the first is lower: 0.138 for the first, 0.145 for the second.

First: GGATGCAA
Second: AAGTGCCA
The “PBM 8-mer E-score” value of the first is higher: -0.0199 for the first, -0.0898 for the second.

Going from CGAGCATA to GTAACTGA, the “PBM 8-mer E-score” value rises from 0.0551 to 0.199.

Going from CAAGGCTC to CCCGTCCC, the “PBM 8-mer E-score” value falls from -0.183 to -0.311.

First: CCGAATCG
Second: AGACCACA
The “PBM 8-mer E-score” value of the first is higher: -0.0188 for the first, -0.0662 for the second.

Going from AGAAGAGC to ACTACGCG, the “PBM 8-mer E-score” value rises from -0.105 to -0.0273.

First: GAACTGGC
Second: AATTATGT
The “PBM 8-mer E-score” value of the first is lower: -0.153 for the first, 0.366 for the second.

First: AAACGTCG
Second: GCAGTGGC
The “PBM 8-mer E-score” value of the first is higher: -0.0425 for the first, -0.129 for the second.

Compared with CACCAGTA, ACCGTTCC is lower in “PBM 8-mer E-score” value: 0.132 for the first, -0.0982 for the second.

Going from CCGTGAGC to AGAGACGA, the “PBM 8-mer E-score” value rises from -0.17 to -0.0812.

First: ATAGGGGC
Second: ATTAATAG
The “PBM 8-mer E-score” value of the first is lower: -0.0502 for the first, 0.426 for the second.

Compared with AGTCGCAA, CTCAAAGC is lower in “PBM 8-mer E-score” value: 0.0896 for the first, -0.0834 for the second.

Going from CCCACCAA to AAGGCCCT, the “PBM 8-mer E-score” value falls from -0.0922 to -0.239.

Compared with TCACCTAA, CATTCGCA is higher in “PBM 8-mer E-score” value: -0.00816 for the first, 0.0126 for the second.

First: GAATGTGA
Second: AGTTGGAA
The “PBM 8-mer E-score” value of the first is lower: 0.082 for the first, 0.144 for the second.

First: AATCGGTA
Second: AGATCCAG
The “PBM 8-mer E-score” value of the first is higher: 0.0299 for the first, -0.095 for the second.

First: ATCAGTTC
Second: AATCGCGT
The “PBM 8-mer E-score” value of the first is higher: 0.1 for the first, -0.00244 for the second.

Going from CTCCACTA to GAGAGCTC, the “PBM 8-mer E-score” value falls from -0.0617 to -0.254.

Compared with GAAAGCAA, ACACGATA is higher in “PBM 8-mer E-score” value: -0.00289 for the first, 0.142 for the second.

Going from GACCTAAA to AGGTAGGA, the “PBM 8-mer E-score” value falls from -0.0673 to -0.159.

First: CTAGGGAG
Second: TGGTCCAA
The “PBM 8-mer E-score” value of the first is lower: -0.278 for the first, -0.114 for the second.

First: AACCCCGA
Second: TGAGCGAA
The “PBM 8-mer E-score” value of the first is lower: -0.214 for the first, -0.0163 for the second.

First: GGGCCCCC
Second: ACCTTAGC
The “PBM 8-mer E-score” value of the first is lower: -0.302 for the first, -0.0878 for the second.

Compared with CCGTAAGA, CTAGAACA is higher in “PBM 8-mer E-score” value: 0.024 for the first, 0.0773 for the second.

Compared with AACGTCGT, GTGTAGTA is higher in “PBM 8-mer E-score” value: 0.00036 for the first, 0.183 for the second.

Compared with CTGGCTGA, AGCGTACG is higher in “PBM 8-mer E-score” value: -0.312 for the first, -0.209 for the second.

Going from AGGGTCAT to CTTCACGA, the “PBM 8-mer E-score” value falls from -0.103 to -0.278.

Compared with AGTATCGC, AAAGAACT is higher in “PBM 8-mer E-score” value: 0.0389 for the first, 0.233 for the second.
